# Assay results taken from the supplement of paper PMC4604168 (melanoma cell lines).
# Some of the results follow. Most values come without repeats; read them as rough.
# Test system: RPMI7951
# Assay: cell count relative to DMSO control; melanoma cells; higher = more viable cells
# Conditions: library dose: low library concentration; 72 h
# 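Note: cell number obtained by counting DAPI-stained nuclei in high-throughput microscope images with image analysis software, screen run in 1,536-well plates.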
row,Compound,cell count [%]
1,"C#Cc1cccc(Nc2ncnc3cc(OCCOC)c(OCCOC)cc23)c1 [erlotinib] + Cc1cc([N+](=O)[O-])ccc1NS(=O)(=O)c1cc(Cl)ccc1Cl [FH535] (first compound 0.8 µM, partner dose 1 µM)",98.3
2,"COCC[n+]1c2c(n(Cc3cnccn3)c1C)C(=O)c1ccccc1C2=O + COc1cc2ncnc(Nc3ccc(Oc4ccccc4)cc3)c2cc1OC [SrcI1] (first compound 0.0004 µM, partner dose 2 µM)",85.8
3,"Nc1cccc2c1CN(C1CCC(=O)NC1=O)C2=O (configuration not stated) [lenalidomide] + O=c1cc(-c2cccc3c2Sc2ccccc2S3)oc(N2CCOCC2)c1 [KU55933] (first compound 1 µM, partner dose 1 µM)",110
4,"Nc1cccc2c1CN(C1CCC(=O)NC1=O)C2=O (configuration not stated) [lenalidomide] + COc1ccc(-c2ccc3c(N4CCOCC4)nc(N4C[C@@H](C)O[C@@H](C)C4)nc3n2)cc1CO [KU0063794] (first compound 1 µM, partner dose 0.02 µM)",91.3
5,"Nc1cccc2c1CN(C1CCC(=O)NC1=O)C2=O (configuration not stated) [lenalidomide] + Cc1cc([N+](=O)[O-])ccc1NS(=O)(=O)c1cc(Cl)ccc1Cl [FH535] (first compound 1 µM, partner dose 1 µM)",109
6,"Nc1cccc2c1CN(C1CCC(=O)NC1=O)C2=O (configuration not stated) [lenalidomide] + COc1cc2ncnc(Nc3ccc(Oc4ccccc4)cc3)c2cc1OC [SrcI1] (first compound 1 µM, partner dose 2 µM)",87.1
7,"Cn1c(Nc2ccc(C(F)(F)F)cc2)nc2cc(Oc3ccnc(-c4ncc(C(F)(F)F)[nH]4)c3)ccc21 + COc1ccc2c(c1)CCC1C2CCC2(C)C(NCCCCCCN3C(=O)C=CC3=O)CCC12 [U73122] (first compound 0.08 µM, partner dose 0.4 µM)",53.5
8,"Cn1c(Nc2ccc(C(F)(F)F)cc2)nc2cc(Oc3ccnc(-c4ncc(C(F)(F)F)[nH]4)c3)ccc21 + O=C(O)C(=O)Nc1sc2c(c1C(=O)O)CCNC2 [TCS401] (first compound 0.08 µM, partner dose 1.66667 µM)",60.8
9,"O=C(CCCCCCC(=O)Nc1ccccc1)NO [vorinostat] + Oc1cc(-c2nc(-c3ccccc3)[nH]c2-c2ccncc2)ccc1Cl [L779450] (first compound 0.08 µM, partner dose 0.2 µM)",117
10,"O=C(CCCCCCC(=O)Nc1ccccc1)NO [vorinostat] + O=C1NC(=O)/C(=C/c2ccc(-c3ccc(F)cc3O)o2)S1 [AS252424] (first compound 0.08 µM, partner dose 1 µM)",91.8
11,"COCC[n+]1c2c(n(Cc3cnccn3)c1C)C(=O)c1ccccc1C2=O + Oc1nc(-c2ccc(C(F)(F)F)cc2)nc2c1CSCC2 [XAV939] (first compound 0.0004 µM, partner dose 2 µM)",72.6
12,"C#Cc1cccc(Nc2ncnc3cc(OCCOC)c(OCCOC)cc23)c1 [erlotinib] + CCN(CC)CCCCNc1ncc2cc(-c3cc(OC)cc(OC)c3)c(NC(=O)NC(C)(C)C)nc2n1 [PD173074] (first compound 0.8 µM, partner dose 0.1 µM)",99
13,"COCC[n+]1c2c(n(Cc3cnccn3)c1C)C(=O)c1ccccc1C2=O + c1cc(-c2cnn3cc(-c4ccc(OCCN5CCCCC5)cc4)cnc23)ccn1 [Dorsomorphin] (first compound 0.0004 µM, partner dose 0.4 µM)",61.3
14,"O=C(CCCCCCC(=O)Nc1ccccc1)NO [vorinostat] + O=C(Nc1ccccc1)c1cc([N+](=O)[O-])ccc1Cl [GW9662] (first compound 0.08 µM, partner dose 2 µM)",110
15,"Nc1cccc2c1CN(C1CCC(=O)NC1=O)C2=O (configuration not stated) [lenalidomide] + O=C(O)C(=O)Nc1sc2c(c1C(=O)O)CCNC2 [TCS401] (first compound 1 µM, partner dose 1.66667 µM)",99.7
16,"COCC[n+]1c2c(n(Cc3cnccn3)c1C)C(=O)c1ccccc1C2=O + O=c1cc(-c2cccc3c2Sc2ccccc2S3)oc(N2CCOCC2)c1 [KU55933] (first compound 0.0004 µM, partner dose 1 µM)",75.8
17,"Nc1cccc2c1CN(C1CCC(=O)NC1=O)C2=O (configuration not stated) [lenalidomide] + N#Cc1c(O)c2c(-c3ccc(-c4ccccc4O)cc3)csc2[nH]c1=O [A769662] (first compound 1 µM, partner dose 2 µM)",101
18,"COCC[n+]1c2c(n(Cc3cnccn3)c1C)C(=O)c1ccccc1C2=O + CCCCCCCCCCCC1=C(O)C(=O)C=C(O)C1=O [Embelin] (first compound 0.0004 µM, partner dose 1.2 µM)",91.2
19,"Cn1c(Nc2ccc(C(F)(F)F)cc2)nc2cc(Oc3ccnc(-c4ncc(C(F)(F)F)[nH]4)c3)ccc21 + Cc1cc([N+](=O)[O-])ccc1NS(=O)(=O)c1cc(Cl)ccc1Cl [FH535] (first compound 0.08 µM, partner dose 1 µM)",59.8
20,"COCC[n+]1c2c(n(Cc3cnccn3)c1C)C(=O)c1ccccc1C2=O + COc1ccc2c(c1)CCC1C2CCC2(C)C(NCCCCCCN3C(=O)C=CC3=O)CCC12 [U73122] (first compound 0.0004 µM, partner dose 0.4 µM)",88.5
21,"Nc1cccc2c1CN(C1CCC(=O)NC1=O)C2=O (configuration not stated) [lenalidomide] + CCCCCCCCCCCC1=C(O)C(=O)C=C(O)C1=O [Embelin] (first compound 1 µM, partner dose 1.2 µM)",119
22,"O=C(CCCCCCC(=O)Nc1ccccc1)NO [vorinostat] + c1cc(-c2cnn3cc(-c4ccc(OCCN5CCCCC5)cc4)cnc23)ccn1 [Dorsomorphin] (first compound 0.08 µM, partner dose 0.4 µM)",88.2
